# From PMC11995724, “Antibiotic target discovery by integrated phenotypic and activity-based profiling of electrophilic fragments” (Cell chemical biology, 2025)
# In all, about 3,200 compounds went through this assay and about 110 (3.4%) showed an effect of 50% or more. This is one part of the list.
# System: T1, V. cholerae SAD30
# T1 construct: SAD30
# Parameters: species or system S. aureus MSSA476 (TSB) or V. cholerae SAD30 (LB); 384-well bacterial growth screen at 25 uM, OD600 relative to DMSO control
# Details: 25 µM; inhibitor
row,Structure (SMILES),% of control remaining [%]
1,"CC(Cl)C(=O)c1ccc(Cl)cc1 (stereo not shown) [10-O04, 2-chloro-1-(4-chlorophenyl)propan-1-one]",91.1748
2,"CCn1c(-c2ccccc2)c(C(=O)CCl)c2ccccc21 [10-E12, 2-chloro-1-(1-ethyl-2-phenyl-1H-indol-3-yl)ethan-1-one]",97.5648
3,"C=CC(=O)Nc1ccc(C(=O)N2CCC3(CC2)OCCCO3)cc1 [2-D16, N-(4-{1,5-dioxa-9-azaspiro[5.5]undecane-9-carbonyl}phenyl)prop-2-enamide]",88.6519
4,"N#Cc1ccc(NC(=O)CCl)cc1Cl [4-N03, 2-chloro-N-(3-chloro-4-cyanophenyl)acetamide]",132.672
